This test has as its target T1, Human GFRAL(ECD)-His (human, UniProt Q6UXV0 20-351).
T1 construct: also called full length GFRAL(ECD)
T1 sequence: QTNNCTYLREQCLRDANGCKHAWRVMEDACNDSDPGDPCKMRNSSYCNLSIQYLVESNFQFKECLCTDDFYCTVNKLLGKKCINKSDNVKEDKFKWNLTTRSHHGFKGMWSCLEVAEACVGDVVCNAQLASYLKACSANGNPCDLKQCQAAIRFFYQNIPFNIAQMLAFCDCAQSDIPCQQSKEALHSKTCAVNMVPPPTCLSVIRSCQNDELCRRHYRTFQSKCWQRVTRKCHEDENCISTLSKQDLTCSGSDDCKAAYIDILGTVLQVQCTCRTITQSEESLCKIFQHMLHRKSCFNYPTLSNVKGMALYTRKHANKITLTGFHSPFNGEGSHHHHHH
Kind of test: MSD plate assay, cRET(ECD)-Fc coated; biotinylated anti-6xHis mAb and streptavidin sulfo-tag. The method, then: Methods: To generate soluble GDF15/GFRAL complexes in vitro, recombinant GFRAL(D2D3)-App, GFRAL(ECD)-His, and GFRAL(ECD)-Fc proteins purified in Example 1 were freshly mixed with equimolar amounts of biotinylated His-GDF15 (1250 pM) in DPBS supplemented with 50 μM CaCl₂. The mixtures were incubated at room temperature for 60 min to allow complex formation. The complex made was stable at 4° C. and was used directly for in vitro binding assays against cRET(ECD)-Fc coated on plastic plates without further purification. Three different GDF15/GFRAL ECD complexes were prepared, including His-GDF15(biotin)/GFRAL(D2D3)-App, His-GDF15(biotin)/GFRAL (ECD)-His, and His-GDF15(biotin)/GFRAL (ECD)-Fc in the same manner. […] His-GDF15(L294R) was mixed with GFRAL(ECD)-His to generate a negative control for GDF15/GFRAL/cRET interaction. […]
Methods: Mixtures of purified biotinylated His-GDF15 and GFRAL(ECD)-His or His-GDF15(L294R) and GFRAL(ECD)-His were prepared as described in Example 3. […] Binding of proteins to plates coated with cRET(ECD)-Fc was detected using biotinylated mouse anti-6×His tag monoclonal antibody followed by streptavidin sulfo-tag, and otherwise by methods described in Example 3.

B1: Human cRET(ECD)-Fc (Fc fusion)
chain: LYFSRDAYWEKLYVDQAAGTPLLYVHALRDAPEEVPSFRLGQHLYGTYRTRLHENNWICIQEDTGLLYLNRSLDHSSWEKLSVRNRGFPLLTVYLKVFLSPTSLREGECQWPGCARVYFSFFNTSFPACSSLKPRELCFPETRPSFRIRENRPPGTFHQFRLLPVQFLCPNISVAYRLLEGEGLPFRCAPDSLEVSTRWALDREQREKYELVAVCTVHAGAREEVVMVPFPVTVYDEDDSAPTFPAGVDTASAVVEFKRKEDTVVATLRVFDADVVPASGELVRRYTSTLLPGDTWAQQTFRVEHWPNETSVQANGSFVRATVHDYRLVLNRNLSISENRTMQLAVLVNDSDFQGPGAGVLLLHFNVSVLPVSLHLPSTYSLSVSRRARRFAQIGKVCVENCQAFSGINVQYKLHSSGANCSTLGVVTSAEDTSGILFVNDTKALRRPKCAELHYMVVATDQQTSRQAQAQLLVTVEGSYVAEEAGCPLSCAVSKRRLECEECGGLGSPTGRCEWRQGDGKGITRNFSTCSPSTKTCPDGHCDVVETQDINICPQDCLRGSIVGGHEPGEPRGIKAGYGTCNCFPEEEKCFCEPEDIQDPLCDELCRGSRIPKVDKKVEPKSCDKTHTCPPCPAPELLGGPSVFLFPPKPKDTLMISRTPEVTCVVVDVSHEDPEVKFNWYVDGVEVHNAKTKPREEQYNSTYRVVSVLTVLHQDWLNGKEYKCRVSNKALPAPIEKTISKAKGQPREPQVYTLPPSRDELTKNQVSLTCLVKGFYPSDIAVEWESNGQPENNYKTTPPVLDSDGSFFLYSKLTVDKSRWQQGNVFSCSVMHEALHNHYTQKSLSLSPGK
notes: also called RET-Fc
As to B1, the binding result is given as “no binding (tested: 0-5 log 10 pM)”.

(Values after US20210340205A1 (Novartis, published 2021).)
